Results from the supplement of paper PMC3334620.
In all, about 33,000 sequences were measured (“E-score (-0.5 to 0.5)”: median about -0.021, highest 2% from about 0.32 on). This is one part of the list.

Each sequence was assayed against T1, Zap1 (UniProt P47043) (assay: PBM E-score (8-mer binding enrichment) (E-score (-0.5 to 0.5)); higher = stronger / more preferred TF binding; most listed sequences are background and not binding sites). Conditions: protein concentration: 200 nM; construct: GST-full length.
T1 sequence: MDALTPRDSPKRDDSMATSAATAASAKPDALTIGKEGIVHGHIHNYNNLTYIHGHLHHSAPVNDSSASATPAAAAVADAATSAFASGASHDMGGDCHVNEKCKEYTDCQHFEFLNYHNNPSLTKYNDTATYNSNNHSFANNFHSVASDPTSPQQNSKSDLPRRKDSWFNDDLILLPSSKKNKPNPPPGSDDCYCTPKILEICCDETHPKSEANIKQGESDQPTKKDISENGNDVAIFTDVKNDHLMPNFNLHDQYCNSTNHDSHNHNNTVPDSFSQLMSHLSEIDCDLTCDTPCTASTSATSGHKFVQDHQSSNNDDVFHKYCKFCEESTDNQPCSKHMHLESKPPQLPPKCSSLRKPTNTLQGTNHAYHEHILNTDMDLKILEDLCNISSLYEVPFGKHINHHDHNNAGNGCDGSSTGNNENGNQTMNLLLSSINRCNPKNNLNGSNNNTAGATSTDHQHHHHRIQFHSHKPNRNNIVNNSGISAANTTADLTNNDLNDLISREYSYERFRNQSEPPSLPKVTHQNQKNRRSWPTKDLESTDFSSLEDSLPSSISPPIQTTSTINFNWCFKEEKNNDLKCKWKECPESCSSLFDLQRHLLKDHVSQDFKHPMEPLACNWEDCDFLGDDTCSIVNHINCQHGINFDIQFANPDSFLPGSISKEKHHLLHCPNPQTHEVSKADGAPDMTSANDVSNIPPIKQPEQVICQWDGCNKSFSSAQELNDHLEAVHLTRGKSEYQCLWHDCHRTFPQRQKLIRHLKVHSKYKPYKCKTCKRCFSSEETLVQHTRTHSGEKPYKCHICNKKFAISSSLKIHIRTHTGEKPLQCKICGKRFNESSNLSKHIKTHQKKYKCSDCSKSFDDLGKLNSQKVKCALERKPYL
How it was run: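 GST-tagged yeast TFs (full-length or DNA-binding domain) were made by PURExpress in vitro transcription/translation and applied at about 100-200 nM to universal all-10-mer Agilent arrays. The arrays were made double-stranded by primer extension, on fresh or once-stripped slides. Bound protein was detected with fluorescent anti-GST, and scans were normalised with masliner. Each ungapped eight-base word, pooled with its reverse complement, received an E-score (modified Wilcoxon-Mann-Whitney statistic) from the Universal PBM Analysis Suite.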

Sequence | PBM E-score
CGTTCCTC | -0.248
CACTGTTA | -0.2
CATTGTAA | 0.0822
ACCGCTGC | -0.0569
CATCATGA | 0.0679
ACGACTCC | -0.141
AACCGCAG | 0.126
ATAACCTG | 0.412
ATGATTGA | 0.129
ACAGCTGC | -0.109
CTGACCTA | 0.0234
GGAGGGCC | -0.252
ACCACACA | 0.102
CCACGCAC | -0.0658
ATATGGTC | 0.128
ATCTGCCA | -0.167
CTCGCTTA | -0.0929
AAATTGTT | 0.0686
AAGCGGGC | -0.335
CCTATCGC | -0.22
ATACCTCG | 0.338
AGACGGCA | -0.132

Sequence | PBM E-score
ATGGCGCC | -0.166
AATCGCGA | 0.141
CCGATCCG | -0.27
TATGTCAA | 0.152
AAGTCGCA | 0.0155
CCATAAGC | -0.0442
CAGCACTG | -0.227
GGCAAGGA | -0.219
CCGGTAAA | 0.107
AAGAGAGC | -0.228
ATAGATAA | 0.0487
ACTCGACC | -0.0836
CACTGTAG | 0.065
AGTACCGA | -0.0924
AGAGCGCC | -0.0379
CCACAGGC | -0.274
GCCACAAC | 0.212
AAGCCCGC | -0.116
AGCCATCG | -0.168
GACTGATC | -0.224
GATTGACC | 0.0347
ACGAGCCA | -0.11

Sequence | PBM E-score
AGGGTCTG | 0.228
GATTGACA | -0.0929
AGTCTAAT | -0.0605
CCTGTGCA | -0.0569
CAGACCAG | 0.0109
CCAAAGAA | 0.139
AGACATTC | -0.164
CATCGATA | 0.0882
ACACCCCC | -0.173
CGCCGACG | -0.181
GTGGGAAC | -0.0242
CAGCTTCC | -0.175
GGCGCCAC | -0.238
TGGATACA | -0.101
CATCGGGC | -0.285
AAAGTAAG | -0.08
ACGACTAA | 0.0677
CTAAACAC | 0.088
GCCAGCAA | -0.12
CCCGTTGA | 0.0244
GGCGGACC | 0.0257
AGGGATCG | -0.0717

Sequence | PBM E-score
CGTGAGGC | -0.0791
CAAGGCCA | 0.0128
CACCTCAG | -0.0156
CTCATCCC | -0.236
ACGACTAT | 0.0329
GGCGGGAA | -0.0633
ACCGCCCT | -0.0715
CAGATTGC | -0.136
ATTTAGTC | 0.0804
GCCAACTA | -0.0645
CGAAAAGC | -0.167
TGTCGTAA | 0.0637
CCATTCGC | -0.105
CAGAGGAA | -0.0216
CCCGTGTC | -0.137
TCTAGGCA | -0.0489
CTGTCTAA | -0.00329
CACGGTCG | -0.213
TCCAAGCA | -0.235
GATTCCGC | 0.0045
